# Experimental data reported in the BET-seq Pho4 binding data (Le et al. 2018).
# The list shows a part of the results. These are noisy estimates, calculated here from bound and input reads.
# Target: T1, Pho4 (S. cerevisiae) (UniProt P07270)
# T1 sequence: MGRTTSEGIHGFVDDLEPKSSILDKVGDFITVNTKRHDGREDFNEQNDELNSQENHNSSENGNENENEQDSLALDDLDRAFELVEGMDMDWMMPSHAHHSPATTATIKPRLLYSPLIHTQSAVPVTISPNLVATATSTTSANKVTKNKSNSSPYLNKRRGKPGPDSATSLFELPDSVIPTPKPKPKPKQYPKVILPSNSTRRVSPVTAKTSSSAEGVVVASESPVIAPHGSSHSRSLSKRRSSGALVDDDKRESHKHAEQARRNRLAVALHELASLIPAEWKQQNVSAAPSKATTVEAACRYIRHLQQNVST
# Experiment: relative binding free energy (BET-seq); higher = weaker binding
# Details: reference: library average
row,Sequence,relative binding free energy
1,CGGTGCACGTGGATGA,-0.377 kJ/mol
2,TATAACACGTGCGGTT,0.0418 kJ/mol
3,CGTGACACGTGAGTGT,0.209 kJ/mol
4,TAGGCCACGTGGGGTG,-1.51 kJ/mol
5,GATTTCACGTGTTTAG,1.38 kJ/mol
6,AGGGACACGTGCAGTT,-0.126 kJ/mol
7,TGTTTCACGTGAAAGA,1.05 kJ/mol
8,TGCCTCACGTGGTGGT,0.293 kJ/mol
9,GGAATCACGTGTTTAG,1 kJ/mol
10,GATCTCACGTGGTATT,1.3 kJ/mol
11,AGGTTCACGTGTCTAT,1 kJ/mol
12,TGCTGCACGTGGTGTG,-0.628 kJ/mol
13,TAAGGCACGTGCGGCG,-0.795 kJ/mol
14,GGATGCACGTGAATGG,0.795 kJ/mol
15,TGTTGCACGTGATCAA,0.544 kJ/mol
16,AAAGGCACGTGGTGGG,-0.753 kJ/mol
17,TTACTCACGTGGGGAT,0.502 kJ/mol
18,TTTGACACGTGTTACG,-0.0418 kJ/mol
19,GATGGCACGTGTAAGA,0.544 kJ/mol
20,TAGGTCACGTGGTGCA,0.0837 kJ/mol
21,AAGGACACGTGCGTGG,-0.209 kJ/mol
22,TTAGCCACGTGGTGTC,-0.502 kJ/mol
23,TGGGTCACGTGTAAGG,0.879 kJ/mol

row,Sequence,relative binding free energy
1,AGTTGCACGTGTAGTC,0.377 kJ/mol
2,TAAGTCACGTGGGAAT,0.544 kJ/mol
3,AATCGCACGTGTGTTT,-0.126 kJ/mol
4,CGGGCCACGTGTGTAG,-0.126 kJ/mol
5,GGGTGCACGTGTGAAG,0.126 kJ/mol
6,CGAGGCACGTGAGTTG,0.377 kJ/mol
7,GGAATCACGTGCTAGT,0.753 kJ/mol
8,ATAAGCACGTGGTCGG,-0.795 kJ/mol
9,GTGATCACGTGAAAGG,1.51 kJ/mol
10,GAAGGCACGTGCAGGG,-0.753 kJ/mol
11,GGACTCACGTGGGGTT,0.377 kJ/mol
12,TTAGTCACGTGGATGG,0.293 kJ/mol
13,GGATTCACGTGTGGGT,1.26 kJ/mol
14,GTGTGCACGTGTAGGA,-0.209 kJ/mol
15,ATGTACACGTGATAAT,0.795 kJ/mol
16,CGGGGCACGTGTGCGT,-0.377 kJ/mol
17,GATTTCACGTGGTAGG,1 kJ/mol
18,CATGGCACGTGTCTTT,0.335 kJ/mol
19,AGACGCACGTGAGTTT,0.753 kJ/mol
20,TATGGCACGTGTTGAT,0.377 kJ/mol
21,GTTCACACGTGGTCTT,0.711 kJ/mol
22,CGTGGCACGTGGTTGC,-0.795 kJ/mol
23,GCGTGCACGTGTGTTT,-0.0418 kJ/mol

row,Sequence,relative binding free energy
1,AAAGCCACGTGTGGGT,-0.502 kJ/mol
2,TAAGGCACGTGGAAAT,0.502 kJ/mol
3,GGGATCACGTGACGAG,1.34 kJ/mol
4,ATGTTCACGTGGATGT,0.544 kJ/mol
5,GTAAGCACGTGGGGAA,-0.879 kJ/mol
6,GATACCACGTGTGGTG,0 kJ/mol
7,TGTGACACGTGTTGTG,0.0837 kJ/mol
8,AATATCACGTGAGAGG,1.38 kJ/mol
9,AGGTGCACGTGTAATG,0.502 kJ/mol
10,TATGGCACGTGTTGAC,-0.46 kJ/mol
11,TCTTTCACGTGGCAGG,0.879 kJ/mol
12,TTAGACACGTGGGTCG,-0.293 kJ/mol
13,GGGTTCACGTGTTGAT,1.67 kJ/mol
14,GTATACACGTGTTCGG,0.209 kJ/mol
15,AATAACACGTGGGATT,-0.586 kJ/mol
16,CTTTTCACGTGAAAGG,1.84 kJ/mol
17,GGGGGCACGTGAGACT,0.335 kJ/mol
18,ATAAGCACGTGGAAGG,-0.377 kJ/mol
19,CTTATCACGTGATTGG,1.3 kJ/mol
20,GTATCCACGTGATTGT,0.962 kJ/mol
21,GGCACCACGTGAGGGT,0.795 kJ/mol
22,TTGTGCACGTGCTAGA,-0.251 kJ/mol
23,TGGGGCACGTGGCGAT,-0.795 kJ/mol

row,Sequence,relative binding free energy
1,CATTGCACGTGTTGGC,-0.0418 kJ/mol
2,TTTACCACGTGGGGCT,-0.502 kJ/mol
3,GATCGCACGTGGGCGG,-0.377 kJ/mol
4,AAGTGCACGTGTAATG,-0.209 kJ/mol
5,GGACACACGTGTGGGA,0.335 kJ/mol
6,ATGGACACGTGGTGGT,-0.251 kJ/mol
7,AGGGGCACGTGGTGAC,-1.09 kJ/mol
8,AGGCGCACGTGAGTGG,0.167 kJ/mol
9,AGAGACACGTGTTTTG,-0.377 kJ/mol
10,CATGGCACGTGATGGC,0.837 kJ/mol
11,GTCATCACGTGTGGTT,1.67 kJ/mol
12,GTTTGCACGTGAGCAA,0.795 kJ/mol
13,TTATACACGTGATTAG,1.26 kJ/mol
14,AGGGACACGTGTTAGA,-0.167 kJ/mol
15,TCTGTCACGTGGCGGG,0.377 kJ/mol
16,TTTGGCACGTGAATGC,0.586 kJ/mol
17,CGTTGCACGTGGGCCG,-0.92 kJ/mol
18,GTGAGCACGTGGAGAT,0.293 kJ/mol
19,ATGGTCACGTGGTGCC,0 kJ/mol
20,AAAGTCACGTGAGTAG,0.711 kJ/mol
21,TTAGACACGTGGAGCA,0.251 kJ/mol
22,AGTAGCACGTGGGCAT,-1.26 kJ/mol
23,AGATTCACGTGACTGG,1.13 kJ/mol

row,Sequence,relative binding free energy
1,TTATTCACGTGGATTT,1.21 kJ/mol
2,CTAATCACGTGTTTAG,1.05 kJ/mol
3,AAGCGCACGTGCTGGG,-0.335 kJ/mol
4,TGAGTCACGTGGCGGG,0.293 kJ/mol
5,GTTATCACGTGGGATA,0.586 kJ/mol
6,AGGTTCACGTGGCGTA,0.167 kJ/mol
7,ATCGACACGTGGGTTG,-0.711 kJ/mol
8,GTTATCACGTGATGCG,1.13 kJ/mol
9,TAAGGCACGTGGGTGT,-0.837 kJ/mol
10,TCTGTCACGTGGAGAG,0 kJ/mol
11,ATGTGCACGTGATGGC,0.711 kJ/mol
12,ATAAGCACGTGTTGAA,0.126 kJ/mol
13,GAGATCACGTGTAGGT,1.3 kJ/mol
14,TCAGTCACGTGTCGTG,0.879 kJ/mol
15,CGTGGCACGTGGAATT,0.753 kJ/mol
16,CTGGCCACGTGATTGT,0.753 kJ/mol
17,ATTTTCACGTGTTGCC,1.59 kJ/mol
18,AGGAGCACGTGGTTGG,-0.669 kJ/mol
19,AGGGTCACGTGAGGCG,0.711 kJ/mol
20,GGCAACACGTGGGTAG,0.0837 kJ/mol
21,GATGTCACGTGATTGA,1.17 kJ/mol
22,ATTTGCACGTGCAAGG,0.0418 kJ/mol
23,GTAGCCACGTGGGAGT,-0.837 kJ/mol
